Reference: article PMC6919601, “Identification of Plasmodium dipeptidyl aminopeptidase allosteric inhibitors by high throughput screening” (PLoS ONE, 2019)
Among all 110,000 compounds or so, about 230 (0.21%) showed an effect of 50% or more. The list shows a part of the results.

What follows are molecules tested against DPAP1 (Plasmodium falciparum, UniProt Q8IIJ9) (assay: primary screen, percent inhibition; read by cleavage of a fluorogenic dipeptide substrate; higher = more effect of the substance).
Parameters: species or system P. falciparum D10 trophozoite lysates; single well
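Also: 30 min substrate incubation versus DMSO and 10 µM JCP410 controls.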

Sequence of DPAP1 (Q8IIJ9 whole entry, looked up): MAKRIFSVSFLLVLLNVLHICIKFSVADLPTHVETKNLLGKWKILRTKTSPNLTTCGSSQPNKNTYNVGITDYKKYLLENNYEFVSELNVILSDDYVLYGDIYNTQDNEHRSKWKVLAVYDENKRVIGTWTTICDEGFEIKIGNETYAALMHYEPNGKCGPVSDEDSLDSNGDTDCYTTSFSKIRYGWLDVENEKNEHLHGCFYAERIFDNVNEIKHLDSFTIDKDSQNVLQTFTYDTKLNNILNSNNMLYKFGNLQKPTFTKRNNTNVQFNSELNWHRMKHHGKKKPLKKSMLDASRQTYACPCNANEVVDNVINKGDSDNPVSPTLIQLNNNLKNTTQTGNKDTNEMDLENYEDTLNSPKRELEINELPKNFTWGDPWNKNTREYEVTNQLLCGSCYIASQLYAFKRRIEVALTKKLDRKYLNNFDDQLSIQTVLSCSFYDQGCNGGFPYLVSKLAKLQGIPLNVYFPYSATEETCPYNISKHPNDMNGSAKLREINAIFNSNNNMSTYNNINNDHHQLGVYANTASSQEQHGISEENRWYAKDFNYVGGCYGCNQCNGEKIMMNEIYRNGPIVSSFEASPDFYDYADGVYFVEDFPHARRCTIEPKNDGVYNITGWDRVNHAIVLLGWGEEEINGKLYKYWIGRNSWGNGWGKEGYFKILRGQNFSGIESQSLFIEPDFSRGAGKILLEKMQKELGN

| Compound | % Inhibition @ 10 uM [%] |
| --- | --- |
| COc1ccc(CCNC(=O)c2noc3c2CCCCC3)cc1OC | -4.43 |
| Cn1nc(C(=O)NCc2cccnc2)c2c1-c1ccccc1SC2 | 36.1 |
| CS(=O)(=O)N(CC(=O)N1CCN(c2ccc(F)cc2)CC1)Cc1ccccc1 | 3.29 |
| CC(C)OP(=O)(OC(C)C)C(Nc1ccccc1)c1c[nH]c2ccccc12 (centres unmarked) | -0.215 |
| CC(/C=C1\N=C(c2ccc(C)cc2)OC1=O)=C\c1ccccc1 | -5.03 |
| CCCCCCOC(=O)C1=C(C)NC(=O)NC1c1ccccc1 (centres unmarked) | 20.4 |
| CCOc1cccc(OCC)c2c(C)[n+](C)c(C)c1-2 | -0.85 |
| COc1ccc(CN2CCCC(O)C2)c(OC)c1 (centres unmarked) | 3.01 |
| COc1ccc(NC(=O)c2c(NC(=O)c3cccnc3)sc3c2CCC3)cc1 | -2.98 |
| Oc1cc(-c2ccccc2)nc2nc(NCc3ccc(Cl)cc3)nn12 | 1 |
| O=C(O)c1ccccc1NC(=O)c1c(C(=O)O)cccc1[N+](=O)[O-] | -1.42 |
| O=C(Nc1nccs1)c1ccc2c(c1)C(=O)N(c1cccc(C(=O)c3ccccc3)c1)C2=O | 5.04 |
| CC(=O)c1c(C(C)=O)c(C)n(Cc2ccc(Cl)cc2)c1C | -9.53 |
| O=C(CSc1nc(O)c2nc[nH]c2n1)NCc1ccccc1 | -4.95 |
| O=C1NC(c2ccc(Cl)cc2)Oc2ccccc21 (centres unmarked) | 3.24 |
| COc1ccc(Cl)c(NCCC(=O)O)c1 | -3.48 |
| O=S(=O)(c1ccc(Br)cc1)N1CCSC1c1ccco1 (centres unmarked) | 1.61 |
| O=C(Nc1ccc(Br)cc1)C1Cc2ccccc2CN1S(=O)(=O)c1cccs1 (centres unmarked) | -1.95 |
| CCOc1ccc(C2c3c(oc4ccc(C)cc4c3=O)C(=O)N2c2nccs2)cc1 (centres unmarked) | 3.73 |
| CNC(=O)C(NC(=O)c1ccc(C)cc1)C12CC3CC(CC(C3)C1)C2 (centres unmarked) | 5.93 |
| CC1(C)CC(=O)C(/C=N/C2CCCC2)=C(O)C1 | 8.01 |
| CC(=O)C1=C(O)C(=O)N(CCCN2CCOCC2)C1c1ccc(Cl)cc1Cl (centres unmarked) | -5.08 |
| CCOc1cccc(C2C(C(=O)OC)=CN(C)C=C2C(=O)OC)c1 | -3.23 |
| CCOCCCNC(=O)Cc1ccc(Br)cc1 | 0.13 |
| Cc1cccc(NC(=O)CCSc2nc(C)cc(C)n2)c1 | -7.3 |
| COc1cccc2c1cc1c(=O)n(CC(=O)NC(C)C34CC5CC(CC(C5)C3)C4)nc(C)n12 (centres unmarked) | 4.84 |

| Compound | % Inhibition @ 10 uM [%] |
| --- | --- |
| CCN(CC)c1c(S(=O)(=O)c2ccc(Cl)cc2)cnc2ccc(OC)cc12 | -1.06 |
| COc1ccc(CNC2C3CC4CC(C3)CC2C4)cc1C (centres unmarked) | -0.582 |
| CCOc1ccccc1-c1nn2c(-c3ccc(F)cc3)nnc2s1 | 2.89 |
| N#Cc1c(N)n(CCO)c2nc3ccccc3nc12 | 2.33 |
| O=C1C2C3c4ccccc4C(c4ccccc43)C2C(=O)N1Cc1cccnc1 (centres unmarked) | 1.87 |
| Cc1cc(/C=C2/NC(=O)N(Cc3ccccc3F)C2=O)c(C)n1C | -10.8 |
| O=C(COc1ccc(Br)cc1)Nc1ccc(F)cc1 | 0.247 |
| O=C(NCCN1CCOCC1)c1cnn(-c2ccc(F)cc2F)c1C1CCNCC1 | -4.21 |
| CC(C)Oc1ccccc1/C=C1\Cc2ccccc2C1=O | 10.1 |
| N=C1/C(=C\c2coc3ccccc3c2=O)C(=O)N=C2SC(Cc3ccc(Cl)cc3)=NN12 | -7.65 |
| OC1=C2C(=Nc3nc4ccccc4n3C2c2ccc(F)cc2)CCC1 (centres unmarked) | -3.37 |
| CCCc1nnc(NC(=O)C(=O)c2c[nH]c3ccccc23)s1 | 2.32 |
| CCC1CCCCN1CCCNc1cnnc2c(Cl)cccc12 (centres unmarked) | -0.884 |
| Cc1ccc2oc(Nc3nc(C)cc(O)n3)nc2c1 | -2.39 |
| O=C(Nc1ccc2oc(-c3ccccc3Br)nc2c1)c1cccc2ccccc12 | 2.6 |
| c1ccc2nc(-c3nc4ccccc4s3)ccc2c1 | 1.74 |
| Cc1ccc(C(C)C)c(OCc2nnnn2-c2ccccc2)c1 | -2.85 |
| Cc1cccc(CN2C(=O)N/C(=C/c3cc(C)n(-c4ccc(S(N)(=O)=O)cc4)c3C)C2=O)c1 | -1.74 |
| COc1cc(C(=O)Nc2cccc(NC(=O)c3cc(F)c(F)cc3Cl)c2)cc(OC)c1OC | 8.6 |
| COc1ccc(C(=O)N2CCN(Cc3cc(OC)c(O)c(OC)c3)CC2)cc1OC | 1.28 |
| FC(F)(F)c1ccc(-c2noc(-c3ccco3)n2)cc1 | -7.96 |
| CCOC(=O)c1cc(-c2ccc(C)cc2)n(CC(=O)NCCC(C)C)c1C | 1.72 |
| C#CC(C)(CC)NC(=O)Cc1ccc(Cl)cc1 (centres unmarked) | 1.03 |
| CCSC1=NC2(CCN(S(=O)(=O)Cc3ccccc3)CC2)N=C1c1ccccc1 | 2.07 |
| COc1ccc(Br)cc1/C=c1\sc2ncnn2c1=O | 0.222 |
| COc1ccc(CCNC(=O)c2cc3cccc4c3n2CC(C)S4)c(OC)c1 (centres unmarked) | 4.44 |

| Compound | % Inhibition @ 10 uM [%] |
| --- | --- |
| O=C(Cc1ccccc1)Nc1nnc(-c2ccc(F)cc2)s1 | 4.35 |
| O=C(NCCCN1CCOCC1)c1cc2c(s1)-c1ccc(Cl)cc1SC2 | -4.24 |
| CCC1(CO)COC(c2ccco2)OC1 (centres unmarked) | 3.32 |
| COCCCNC(=O)c1ccc(CSc2nc3cccnc3n2Cc2cccc(C)c2)cc1 | 7.69 |
| O=C(c1ccc(C(=O)N2CCc3ccccc32)cc1)N1CCc2ccccc21 | -9.3 |
| CCOCCCNCc1ccc(N(C)C)cc1 | -3.26 |
| O=C1CC(N2CCCCC2)C(=O)N1c1ccccc1Cl (centres unmarked) | -10.6 |
| Cn1cc(/C(Cc2ccccc2)=N/O)c2ccccc21 | 3.42 |
| Nc1nc(CN2CCN(c3ccc(F)cc3)CC2)nc(Nc2ccccc2)n1 | -0.884 |
| C=CCc1cc(/C=C2/C(=N)N3OC(C)=CC3=NC2=O)cc(OC)c1O | 0.317 |
| Cc1cccn2c(=O)c3cc(C(=O)NCc4ccccc4)c(=N)n(CCc4ccccc4)c3nc12 | -3.27 |
| COc1ccc2cc3c(N)nn(C(=O)C4CCC(C(C)(C)C)CC4)c3nc2c1 (centres unmarked) | 4.15 |
| C=CCn1c(SCC(=O)Nc2ccccc2)nc2sc3c(c2c1=O)CCC3 | -1.28 |
| CCCC(=O)Nc1ccc(S(=O)(=O)Nc2c(C)cc(C)cc2C)cc1 | -3.39 |
| CS(=O)(=O)c1ccc(S(=O)(=O)N2CCC(C(N)=O)(N3CCCCC3)CC2)cc1 | -3.49 |
| C=CCn1c(SCC(=O)N2CCOCC2)nc(O)c(Cc2ccccc2)c1=O | 0.726 |
| COc1cc2nc3c(O)n(CCN4CCCCC4C)cnc-3c2cc1OC (centres unmarked) | -0.0235 |
| CC(=O)C1=C(O)C(=O)N(c2cccc(Br)c2)C1c1ccccc1 (centres unmarked) | -0.711 |
| CCc1ccc(CN2CCN(C/C=C/c3ccccc3)CC2)cc1 | -0.0404 |
| Cc1ccccc1CN1CCN(c2cccc(C(F)(F)F)c2)CC1 | -0.294 |
| COc1cc(OC)c(OC)cc1/C=C(/C#N)C(N)=S | -4.65 |
| COc1ccc(CN2CCN(Cc3csc(C)c3C)CC2)c(OC)c1OC | 3.1 |
| CN(c1ccccc1)S(=O)(=O)c1ccc(Cl)c(C(=O)Nc2ccccc2C(=O)O)c1 | 1.56 |
| COCCN1C=C(C(=O)OC)C(c2cccc(C)c2)C(C(=O)OC)=C1 | -1.11 |
| Cc1ccc(OCc2ccc(C(=O)N3CCCC3)o2)cc1C | 0.413 |
| CC1=C(C(=O)OCC(C)C)C(c2cccc(Cl)c2Cl)CC(=O)N1 (centres unmarked) | -0.0508 |

| Compound | % Inhibition @ 10 uM [%] |
| --- | --- |
| COc1ccc2nc(N3CN(c4nc5ccc(OC)cc5s4)CN(C(C)C)C3)sc2c1 | -3.53 |
| O=S(=O)(c1cccc(C(F)(F)F)c1)N1CCCC(n2nnc3ccccc32)C1 (centres unmarked) | 5.43 |
| COc1cccc(-c2nc3sc4c(c3c(=O)n2CC(=O)NC2CCCCC2)CCCC4)c1 | 2.38 |
| CC1CCC(N2CCN(c3ccc(F)cc3)CC2)CC1 (centres unmarked) | -2.18 |
| Cc1cc(C)n2c(SCc3cccs3)nnc2n1 | -1.43 |
| O=C(c1cccnc1)N1CCN(C/C=C/c2ccccc2)CC1 | 1.87 |
| CCOC(=O)C1=C(C)n2c(s/c(=C/c3cccc(O)c3)c2=O)=NC1c1ccc(O)c(OC)c1 (centres unmarked) | 5.98 |
| Cc1ccc(S(=O)(=O)NCCCCC(NC(=O)OC(C)(C)C)C(=O)O)cc1 (centres unmarked) | -4.27 |
| COCCCNC(=O)CNC(=S)N(Cc1ccccc1)Cc1cccnc1 | 1.27 |
| C=CCc1ccccc1OCCSc1nc(-c2cccc(OC)c2)nc2cc(=O)[nH]n12 | 9.47 |
| CC(=O)N(CN1C(=O)c2ccccc2C1=O)c1ccccc1Cl | 0.687 |
| O=C(Nc1cccc2ccccc12)c1cccnc1 | -8.49 |
| CC(=O)Nc1ccccc1NC(=O)Nc1ccc(Cl)cc1 | -1.22 |
| CCCC(=O)NC(=O)/C(C#N)=C/Nc1cccc(Br)c1 | 0.687 |
| COc1ccc(NC(=O)c2cc3ccccc3cc2O)c([N+](=O)[O-])c1 | -3.79 |
| CCCC(C)c1c(O)n(CC)c(SC)nc1=O (centres unmarked) | 0.0792 |
| CCOC(=O)Cc1sc(N)c(C#N)c1C | 10.7 |
| CC(C)(C)c1ccc(OCC(=O)Nc2ccc(Cl)cn2)cc1 | 17.3 |
| CCOc1ccc(S(=O)(=O)/N=C2/C=C(Sc3nc[nH]n3)C(=O)c3ccccc32)cc1 | 4.96 |
| O=C1CN(C(=O)c2ccccc2)C(c2ccccc2)c2cc(Br)ccc2N1 (centres unmarked) | 0.0345 |
| CCc1ccc(C2C(C(=O)OC)=CN(Cc3ccc(C)cc3)C=C2C(=O)OC)s1 | -10.9 |
| OC12CC3CC(C1)C(N1CCNCC1)C(C3)C2 (centres unmarked) | 1.43 |
| COc1cc(Br)c(CNC2CCCC2)cc1OC | 1.43 |
